# Reference: the supplement of paper PMC11417369
# ± gives the standard deviation of the averaged measurements. This is one part of the list.
# Test system: PfAP2-G AP2 domain (GST-tagged)
# Test: gcPBM binding intensity (ln(normalized median fluorescence intensity)); higher = stronger DNA binding
# In short: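 GST-tagged P. falciparum DNA-binding domains produced in E. coli were incubated for 1 h on an Agilent 4 × 180k array of primer-extended double-stranded 36-bp intergenic genomic probes with negative controls. Binding intensity is the highest Masliner-normalised natural-log median intensity across replicate spots of either probe orientation, with bound protein detected by Alexa488 anti-GST antibody at 488 nm.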
row,Sequence,gcPBM binding intensity (ln)
1,ATAAATAAATAAATACGTACATATATATATATATAT [XGTACX_site8838],11.5 ± 0.93
2,TAAAGTACAGGAGTAAATTGAAAAAAAAAAAAAAAA [CACACA_negctrl_site1410],10.9 ± 1
3,ATACATATATTTTTATGTACATATATTTTTTTTGTA [XGTACX_site4546],11.3 ± 0.73
4,ATATGTTAAAAATTCACACAAAAAAGTATACAGATA [CACACA_site4179],10.3 ± 0.19
5,TATGAATGCTTTTATGCACACGTACAAAAATATTAT [CACACA_site8851],11.4 ± 0.77
6,AACACTCAAAAAAATTTAAATAAAAAAAAAAAAAAA [CACACA_negctrl_site680],9.51 ± 0.29
7,ATGATTTTTTTTATTTTTTAGCTAGAGCTAGCTTAT [CACACA_negctrl_site433],9.66 ± 0.042
8,TATGGAAGAAAATATACACACAAAAAAAAAAAATGG [CACACA_site4924],10.23 ± 0.092
9,ACATGTTTCATATGTTGTACTAACTTAAATATAAAT [XGTACX_site6412],11.2 ± 0.72
10,TTACCTATTCTAAAATGTACACATTATATATGTGCT [XGTACX_site5776],11.3 ± 0.64
11,TGTATATTTGTTGTTACACACATATATTTTTTTTTT [CACACA_site128],9.895 ± 0.049
12,TTGTACATCTTTTGCACACGTAATGTTATTAAAATA [CACACA_site4827],11.3 ± 1
13,TTAACTATAATAAAATGTACATATGTAACATATATA [XGTACX_site7790],11 ± 0.51
14,TTATAACAAAAAATTAAAGAAAGAGAATAAGTGAAA [CACACA_negctrl_site975],10.02 ± 0.057
15,AGGTCCTACACCAATAAATATCATATATATATTATA [CACACA_negctrl_site568],10.1 ± 0.27
16,GGTTAGACGAAATATACATGCAATGGAAAATAAGTT [TGCATGCA_site23],10.12 ± 0.014
17,ATATTAATTTCTCATGCATGTTCTTCCCAATTGTAA [TGCATGCA_site425],10 ± 0.057
18,CTTTTTGAAATATTAACACACATTTTGTTAATGAAT [CACACA_site6087],9.845 ± 0.021
19,TATAAGTAGATAAGGGTGCACAATATAAATATATAG,10.7 ± 0.73

row,Sequence,gcPBM binding intensity (ln)
1,TCATCATGTATGTACACACATACATATATTATGTAC [CACACA_site1386],11.7 ± 0.8
2,TCCTTAATTCAAAAAATAATATCTTATATTTCAAAT [CACACA_negctrl_site1592],9.84 ± 0.45
3,CACAAGAAAATTCACACACACACATATATATATATA [CACACA_site3880],10.1 ± 0.3
4,GGAATAAAGACAGCACGTACATATCTTACGAAGCTC [XGTACX_site3918],11.4 ± 1
5,ATATTTATATTTTCATGTACGTATTTTTATATATAT [XGTACX_site8478],11.6 ± 0.96
6,TATTTTTTTTGTCATATATAAGAAACGCTCTTCTTT [TGCATGCA_negctrl_site127],9.895 ± 0.007
7,AAATAAAAGATATTTTTACACACTTTTGATGAGATC [CACACA_site9000],9.915 ± 0.021
8,TGAAATAAAATTTGTACACACATATTTATTTATATA [CACACA_site6421],11.2 ± 0.97
9,TGCATTATATTAAATTTTTTATTTGTTGATGTTATA [GTGCAC_negctrl_site371],9.64 ± 0.11
10,TTGTATTTATTTATGGGAGGATTATAATCATTGTAG [GTGCAC_negctrl_site268],10.01 ± 0.035
11,TAATTCACATTTTATACACACATTCGAACCTTTTTT [CACACA_site3341],9.94 ± 0.14
12,ATATATATACATATAACACACACATATATATATATA [CACACA_site8827],10.2 ± 0.61
13,TATAGTCAACTAGTCACACATATAATTATATATATA [CACACA_site5872],10.1 ± 0.22
14,TATAAAGAAATCATTACACACAAATAAATACATACA [CACACA_site2675],10 ± 0.13
15,ATTTTTATTAGTTATTGTACTTATTATTTATTAATT [XGTACX_site2568],11.4 ± 0.89
16,TATAGATATATACGGTGTACATACATAAAAAAAAAA [XGTACX_site1648],11.4 ± 0.91
17,CATGACATAAAAAATATACACACTATAATATATATA [CACACA_site1402],9.94 ± 0.28
18,GTAAGAATATTTATAAATGTATAATTTGTATTATTT [GTGCAC_negctrl_site667],9.8 ± 0.042
19,TAAAATATCATAGATAGTACATATAACGTTTTATAT [XGTACX_site5666],10.7 ± 0.42

row,Sequence,gcPBM binding intensity (ln)
1,ATCGAAATTTTAGAATATATATGATGTTACTTAAGT [GTGCAC_negctrl_site611],9.75 ± 0.23
2,AGTTAATTAATAGGCACACATATATATGTATAAATA [CACACA_site523],10.355 ± 0.007
3,AAATATATTATATTTAGTACGCATATATAATATGCA [XGTACX_site4835],11 ± 0.71
4,ATGAAAATTTATATTGCACACATAGGGAATAAAAAA [CACACA_site8667],10.22 ± 0.057
5,ACCATATAAATAAACACACACACACCCATATATATA [CACACA_site2321],10.1 ± 0.19
6,GTTAAACTTAATATCGGTACACACACAAGATAAGAA [XGTACX_site1660],11.2 ± 0.7
7,ATAATATGTATAATCACACATTTTTCTTTTAAGACA [CACACA_site5297],9.85 ± 0.16
8,TATATATCTATATTTACACACAGTTACTATGTAGAT [CACACA_site7532],9.755 ± 0.049
9,CTAAGGTATGATTAATCACACACATAAATATATATA [CACACA_site8847],9.79 ± 0.11
10,GGTTCATTAAAGTGTACACATAAATACCGTAACATT [CACACA_site6002],11.9 ± 1
11,TAATTTAAAATATATAGTACACACGTGAACACAAAT [XGTACX_site792],11.6 ± 0.69
12,CTATTACATTAAATGTGTACATATATATATATATAT [XGTACX_site5233],11.6 ± 0.96
13,GTAAATACACATATGTGTACATATATATATATATAT [XGTACX_site3696],11.5 ± 0.86
14,AGAATAAGAATTATTAGTACTTATAAATATTATATT [XGTACX_site7228],10.9 ± 0.58
15,GTGGCTACTATATATTGTACGATATTATATATATAC [XGTACX_site8376],11.1 ± 0.6
16,TCTTATGAATATCCCCGTACACATATATTTCTTATA [XGTACX_site6877],11.3 ± 0.69
17,TTGTTTTTGTTCTTGGGTACTTAAATTATAAATGAT [XGTACX_site113],11.3 ± 0.79
18,AGCTACACACCACAATGTACATAAATATATATGTGA [XGTACX_site1483],11 ± 0.54
